Assay results as given in PubChem BioAssay AID1463 (National Center for Advancing Translational Sciences (NCATS), 2008).
The whole screen tested about 280,000 compounds, of which about 2,600 (0.93%) were called active. Roughly 8% stayed inconclusive and do not appear here. Calls follow the shape of the dose curve; as a rule, active = well fitted curve in the direction sought with a large enough effect; inconclusive = small, poorly fitted or top-dose-only effect; inactive = flat fitted curve, though single readings scatter. This is a selection; strong and weak results do not stand in their true shares.

Assay: Counterscreen qHTS for Inhibitors of Tau Fibril Formation, Fluorescence Polarization; also: nearly all actives have a fitted effect of over 55% in size
Details: tau K18 P301L Alexa594 fluorescence, heparin fibrillization; series mostly up to 57.7 µM; activity change, negative = decrease: at the top concentration
In short: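 Human tau K18 P301L (15 uM unlabeled, 0.24 uM Alexa 594-labeled) in 100 mM sodium acetate pH 7 with 20 uM heparin, 6 hr at 37 C. ThT 30 uM added, 1 hr ambient; Alexa 594 FP and total fluorescence read at 555/632 nm.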
% is scaled to controls: 0 for no effect and ±100 for the full control effect; potency is read from the fitted curve at half-maximal effect; tags tell the direction and shape of the fitted curve or compound fluorescence and quenching.

Row | SMILES | Potency | activity change, negative = decrease
1 | Nc1ccccc1Nc1cc(-c2cccc(Cl)c2)nn1-c1ccccc1 | active: 12.6 µM [quencher] | 
2 | CNc1cc(NS(=O)(=O)c2ccc(N)cc2)nc(NC)n1 |  | inactive: -21.9%
3 | COc1ccc(-c2c(-c3ccc(OCC(=O)NN)cc3O)n[nH]c2C(F)(F)F)cc1 | active: 22.4 µM [quencher] | 
4 | Cc1cc(C)c2oc(C(=O)Nc3ccc(S(=O)(=O)N4CCC(C)CC4)cc3)cc(=O)c2c1 |  | inactive: -4.01%
5 | O=S(=O)(Nc1cc(F)ccc1F)c1ccc2[nH]c3c(c2c1)CCCC3 | active: 11.2 µM [quencher] | 
6 | CC(=O)Nc1ccc(C2=NNC(=Nc3cccc(S(=O)(=O)N(C)C)c3)SC2)cc1 | active: 14.1 µM [quencher] | 
7 | COC(=O)[C@@]1(Cc2ccc(F)cc2)[C@H]2c3cc(C(=O)N4CCCC4)n(CCc4ccc(O)c(O)c4)c3C[C@H]2CN1C(=O)c1ccccc1 |  | inactive: -26.8%
8 | O=[N+]([O-])c1cc(Cl)ccc1N1CCN(c2ccccc2O)CC1 | active: 15.8 µM [quencher] | 
9 | COc1cccc(-c2ccc3c(N)c(C(=O)c4ccc(Br)cc4)sc3n2)c1 | active: 2.51 µM [quencher] | 
10 | Cc1ccc(C(=O)Nc2ccc(C(=O)N/N=C/c3c[nH]c4ccccc34)cc2)cc1 | active: 14.1 µM [quencher] | 
11 | Clc1cccc(CN2CCC(Cc3ccccc3)CC2)c1 | active: 12.6 µM [quencher] | 
12 | CCC1=C(OC(=O)N(CC)CC)N2C(=O)OC(=NCCc3c[nH]c4ccccc34)[C@]2(C)[C@H]2C1=CC[C@H]1C(=O)N(CC)C(=O)[C@H]12 |  | inactive: -17.7%
13 | COc1ccc(-c2nc(SCC(=O)NC3CCCC3)c(-c3ccccc3)[nH]2)cc1OC | active: 14.1 µM [quencher] | 
14 | COc1cccc(-c2nc(N3CCN(Cc4ccccc4)CC3)c3ccccc3n2)c1O |  | inactive: -1.47%
15 | COc1cccc(COC(=O)c2nn(-c3ccccc3)nc2N)c1 |  | inactive: -27.6%
16 | CC1(C)OC(c2ccccc2)=C/C(=C/C=N/NC(=O)c2ccncc2)O1 |  | inactive: 10.6%
17 | COC(=O)c1ccc(NC(=O)CN2CCN(c3ccc(Cl)cc3)CC2)cc1 |  | inactive: -26%
18 | Cc1occc1C(=O)N/N=C/C(Br)=C/c1ccccc1 |  | inactive: -28.4%
19 | COC(=O)C1=C(C(=O)OC)[C@@H]2N(C)c3ccc(OC)cc3[C@@]23C[C@@H](C(=O)OC)N(S(=O)(=O)c2ccc([N+](=O)[O-])cc2)C3=N1 |  | inactive: -22.3%
20 | O=C1OCCN1C(=O)[C@H]1[C@H](c2ccc(Cl)cc2)C(c2cccc(Cl)c2)=NN1c1ccccc1 |  | inactive: 2.52%
21 | Cc1ccc(S(=O)(=O)/N=C2/C=C(C3C(=O)CC(C)(C)CC3=O)C(=O)c3ccccc32)cc1 | active: 8.91 µM [quencher] | 

Row | SMILES | Potency | activity change, negative = decrease
22 | C(=N\Nc1nc(-c2ccccc2)cs1)/c1ccncc1 | active: 12.6 µM [quencher] | 
23 | COc1ccc(-c2cc(=O)c3c(O)cc(O)cc3o2)cc1 |  | inactive: -22%
24 | CC(=O)c1cccc(NC(=O)Nc2csc3c2CCCC3)c1 | active: 11.2 µM [quencher] | 
25 | CCN(c1ccc(OC)cc1)S(=O)(=O)c1ccc2[nH]c3c(c2c1)CCCCC3 | active: 10 µM [quencher] | 
26 | COc1cc(-c2nc3ccc(C)cn3c2Nc2ccc3c(c2)OCCO3)ccc1O | active: 15.8 µM [quencher] | 
27 | COc1ccc(S(=O)(=O)c2c(C)c(NS(=O)(=O)c3ccccc3)cc(C)c2O)cc1 |  | inactive: -21.2%
28 | Cn1c(N)c(C(=O)COC(=O)c2cc(C(F)(F)F)nc3ccccc23)c(=O)n(C)c1=O |  | inactive: -16.4%
29 | Cc1ccc(-c2cc(N)n3nc(-c4ccc(C)cc4)cc3n2)cc1 |  | inactive: -29.3%
30 | COc1ccc(NC(=O)c2ccc(-c3ccc(-c4noc(C)n4)cc3C)cc2)cc1OCCN(C)C |  | inactive: -30.7%
31 | Cc1ccc(NC(=O)N2CC=C(c3c[nH]c4ccccc34)CC2)cc1Cl | active: 14.1 µM [quencher] | 
32 | Cn1c(NCc2c(O)ccc3ccccc23)nc2ccccc21 | active: 17.8 µM [quencher] | 
33 | COc1cc(/C=C/c2cc(OC(C)=O)c3ccccc3n2)c(OC(C)=O)c([N+](=O)[O-])c1 | active: 12.6 µM [quencher] | 
34 | CN(C)C1C(=O)C(C(N)=O)=C(O)[C@@]2(O)C(=O)C3=C(O)c4c(O)ccc(Cl)c4C(O)[C@H]3C[C@@H]12 (stereo partly drawn) |  | inactive: -8.92%
35 | CCCCc1ccc(-c2csc(/C(C#N)=C/c3ccc(C)o3)n2)cc1 |  | inactive: -28.6%
36 | CCO/C=C1\C(=O)N(CC)c2ccccc21 |  | inactive: -7.75%
37 | COc1ccc(NC(=O)c2ccc(COc3ccccc3OC)o2)cc1OC |  | inactive: -20.4%
38 | Nc1nc(N)c(C=Nc2ccc(Br)cc2)c(Nc2ccc(Br)cc2)n1 | active: 10 µM [quencher] | 
39 | CCN(CC)CCCN1C=C2C(=O)C(C)(OC(=O)CCc3ccccc3)C(=O)C=C2C=C1c1ccc(C#N)cc1 (stereo not drawn) |  | inactive: -7.82% [at 11.6 µM]
40 | Oc1ccc(-c2cn3c(n2)SCC3)cc1O | active: 14.1 µM [quencher] | 
41 | O=C(/C=C/c1ccc(-c2cccc([N+](=O)[O-])c2)o1)N1CCOCC1 |  | inactive: -24.5%
42 | CN1C=CC=C/C1=C1/SC(=S)N(Cc2ccccc2)C1=O |  | inactive: -2.32%

Row | SMILES | Potency | activity change, negative = decrease
43 | CCC(NC(C)C)C(O)c1ccc(O)c(O)c1 (stereo not drawn) |  | inactive: -30.6%
44 | c1ccc(Nc2cccc(Nc3ccccc3)c2)cc1 | active: 11.2 µM [quencher] | 
45 | O=[N+]([O-])c1ccc(N=Nc2ccc(O)cc2O)cc1 | active: 14.1 µM [quencher] | 
46 | CCC1=C(OC(=O)N(CC)CC)N2C(=O)OC(=NCCc3c[nH]c4ccccc34)[C@]2(Cc2ccccc2)[C@H]2C1=CC[C@H]1C(=O)N(CC)C(=O)[C@H]12 |  | inactive: -12.5%
47 | COc1ccccc1[C@@H]1C(c2cccc(C)c2)=NN(c2ccccc2)[C@H]1C(=O)N1CCOC1=O |  | inactive: -2.94%
48 | CCCN(C(=O)C(=O)Nc1ccc2nc3n(c(=O)c2c1)CCCCC3)c1ccc(OCC)cc1 |  | inactive: -7.04%
49 | O=C(O)c1ccccc1Nc1ccccc1 | inactive | 
50 | O=C(Nc1ccc(F)cc1)N1CCN(c2ccc3nnc(-c4ccc(F)cc4)n3n2)CC1 |  | inactive: -25.7%
51 | CCC(=O)O[C@@]1(C(=O)CCl)C(C)CC2C3CCC4=CC(=O)C=C[C@@]4(C)[C@]3(F)C(O)C[C@]21C (stereo partly drawn) |  | inactive: -26.7%
52 | CC(=O)c1ccc(NC(=O)c2ccc(NC(=O)CCS(=O)(=O)c3cccs3)cc2)cc1 |  | inactive: -29.4%
53 | COc1ccc(NC(=O)C(c2ccc(C)cc2)N(C)C(=O)Cc2cccs2)cc1 (stereo not drawn) |  | inactive: -5.67%
54 | Oc1ccccc1-c1nc(/C=C/c2ccccc2)nn1-c1ccccc1 |  | inactive: 3.47%
55 | COc1ccccc1N1CCN(CC(O)COc2cccc3ccccc23)CC1 (stereo not drawn) | inactive | 
56 | CO[C@@]1(NC(=O)Cc2cccs2)C(=O)N2C(C(=O)O)=C(COC(N)=O)CS[C@@H]21 |  | inactive: -15.5%
57 | COc1ccc(COc2cc(-c3cccc(OC)c3)nc3ccc(NC(=O)c4ccccc4)cc23)cc1 |  | inactive: -21.2%
58 | COc1cc(-c2ccc(N=Nc3ccc4c(S(=O)(=O)O)cc(S(=O)(=O)O)c(N)c4c3O)c(OC)c2)ccc1N=Nc1ccc2c(S(=O)(=O)O)cc(S(=O)(=O)O)c(N)c2c1O | active: 1 µM [quencher] | 
59 | COc1ccc2c(c1)C(=O)[C@@H](OC(=O)Nc1ccc(C)c(Br)c1)[C@H](c1ccc(OC)c(Br)c1)O2 |  | inactive: -14.4%
60 | Cc1ccc(-c2cc(C(=O)NCc3cnn(C)c3)c3cc(Br)ccc3n2)cc1 |  | inactive: -19.8%
61 | N#CC(=C=[N-])c1nc2ccccc2nc1-[n+]1cccc(NC(=O)c2ccccc2)c1 |  | inactive: -27.2%
62 | CCOC(=O)/C(C#N)=C/c1c(OCC)n(CC)c2ccccc12 |  | inactive: -25.5%
63 | COc1ccc(C2=CC3=C(Br)C(=O)C(C)(O)C(=O)C3=CO2)cc1 (stereo not drawn) |  | inactive: -7.24%

Row | SMILES | Potency | activity change, negative = decrease
64 | COc1ccc(C(=O)Nc2ccc3nc(N4CCC(C)CC4)cc(C)c3c2)cc1 | active: 5.01 µM [quencher] | 
65 | COc1cccc(-c2nc(SCC(=O)Nc3ccc4c(c3)OCCO4)c(-c3ccccc3)[nH]2)c1 | active: 5.62 µM [quencher] | 
66 | COc1ccc2c(c1)O[C@@H](c1cccc(C(F)(F)F)c1)[C@H](OC(=O)Nc1ccc(OC(F)F)cc1)C2=O |  | inactive: -20.2%
67 | COc1ccccc1OCC(=O)NNc1c2ccccc2nc2ccccc12 | active: 15.8 µM [quencher] | 
68 | C[C@@H](NC(=O)/C(C#N)=C/c1ccc(O)c(O)c1)c1ccccc1 |  | inactive: -18.3%
69 | O=C1Nc2ccc(Cl)cc2C(C#CC2CC2)(C(F)(F)F)O1 (stereo not drawn) |  | inactive: -25.2%
70 | Cc1c(N=Cc2c(O)n(Cc3ccco3)c(=O)c3ccccc23)c(=O)n(-c2ccccc2)n1C |  | inactive: -27.7%
71 | Cc1cccc(CSc2ccc(-c3cccs3)nn2)c1 |  | inactive: -27%
72 | O=C(NCCc1c[nH]c2ccccc12)[C@@H]1C[C@H]1[C@@H](NP(=O)(c1ccccc1)c1ccccc1)c1ccccc1 |  | inactive: 3.7%
73 | COc1ccc(NC(=S)N(CCc2c(C)[nH]c3ccccc23)Cc2ccco2)cc1 | active: 14.1 µM [quencher] | 
74 | CCN(CCCNC(=O)c1cc2cc3cc(OC)ccc3nc2s1)c1cccc(C)c1 | active: 3.98 µM [quencher] | 
75 | Cc1ccc(-c2[nH]c(-c3ccccc3)nc2SCC(=O)NCC2CCCO2)cc1 (stereo not drawn) |  | inactive: -8.55%
76 | C[C@H]1CCC[C@@]2(O[C@@H](CCO)C[C@@H](O)[C@@H]2O)O1 |  | inactive: -0.466%
77 | Cc1ccc(NC(=O)CCNS(=O)(=O)c2cccc3nonc23)cc1Cl |  | inactive: -25.1%
78 | CCOc1ccc(NC(=O)CC2C(=O)N(c3ccccc3)C(=O)N2CCc2cccs2)cc1 (stereo not drawn) |  | inactive: -26.3%
79 | Nc1ccccc1C#Cc1ccccc1 |  | inactive: -27.1%
80 | CCCCC1=CC2=CC(=O)C(C)(OC(=O)CCc3ccccc3)C(=O)C2=CO1 (stereo not drawn) |  | inactive: -8.14%
81 | CC(C)NC[C@H](O)c1ccc(O)c(O)c1 | inactive | 
82 | O=C1c2cccc3cccc(c23)C(=O)N1CC1CCN(CC(O)COc2ccc3ccccc3c2)CC1 (stereo not drawn) | active: 15.8 µM [quencher] | 
83 | CC[C@@]1(O)CC2CN(CCc3c([nH]c4ccccc34)[C@](C(=O)OC)(c3cc4c(cc3OC)N(C)C3[C@@](O)(C(=O)OC)C(OC(C)=O)[C@]5(CC)C=CCN6CC[C@@]43C65)C2)C1 (stereo partly drawn) |  | inactive: -21%
